# The campaign covered roughly 310,000 compounds. About 14,000 (4.5%) showed an effect of 50% or more. The effect is printed as a negative number. Some of the results follow.
# Molecular target: human ether-à-go-go-related gene (hERG) potassium channel (human, UniProt Q12809)
# Experiment: primary screen, population patch clamp on CHO cells stably expressing hERG
# 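Also: peak tail current of the secondary pulse compared with the same well before compound.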
# human ether-à-go-go-related gene (hERG) potassium channel, sequence (Q12809 whole entry, looked up): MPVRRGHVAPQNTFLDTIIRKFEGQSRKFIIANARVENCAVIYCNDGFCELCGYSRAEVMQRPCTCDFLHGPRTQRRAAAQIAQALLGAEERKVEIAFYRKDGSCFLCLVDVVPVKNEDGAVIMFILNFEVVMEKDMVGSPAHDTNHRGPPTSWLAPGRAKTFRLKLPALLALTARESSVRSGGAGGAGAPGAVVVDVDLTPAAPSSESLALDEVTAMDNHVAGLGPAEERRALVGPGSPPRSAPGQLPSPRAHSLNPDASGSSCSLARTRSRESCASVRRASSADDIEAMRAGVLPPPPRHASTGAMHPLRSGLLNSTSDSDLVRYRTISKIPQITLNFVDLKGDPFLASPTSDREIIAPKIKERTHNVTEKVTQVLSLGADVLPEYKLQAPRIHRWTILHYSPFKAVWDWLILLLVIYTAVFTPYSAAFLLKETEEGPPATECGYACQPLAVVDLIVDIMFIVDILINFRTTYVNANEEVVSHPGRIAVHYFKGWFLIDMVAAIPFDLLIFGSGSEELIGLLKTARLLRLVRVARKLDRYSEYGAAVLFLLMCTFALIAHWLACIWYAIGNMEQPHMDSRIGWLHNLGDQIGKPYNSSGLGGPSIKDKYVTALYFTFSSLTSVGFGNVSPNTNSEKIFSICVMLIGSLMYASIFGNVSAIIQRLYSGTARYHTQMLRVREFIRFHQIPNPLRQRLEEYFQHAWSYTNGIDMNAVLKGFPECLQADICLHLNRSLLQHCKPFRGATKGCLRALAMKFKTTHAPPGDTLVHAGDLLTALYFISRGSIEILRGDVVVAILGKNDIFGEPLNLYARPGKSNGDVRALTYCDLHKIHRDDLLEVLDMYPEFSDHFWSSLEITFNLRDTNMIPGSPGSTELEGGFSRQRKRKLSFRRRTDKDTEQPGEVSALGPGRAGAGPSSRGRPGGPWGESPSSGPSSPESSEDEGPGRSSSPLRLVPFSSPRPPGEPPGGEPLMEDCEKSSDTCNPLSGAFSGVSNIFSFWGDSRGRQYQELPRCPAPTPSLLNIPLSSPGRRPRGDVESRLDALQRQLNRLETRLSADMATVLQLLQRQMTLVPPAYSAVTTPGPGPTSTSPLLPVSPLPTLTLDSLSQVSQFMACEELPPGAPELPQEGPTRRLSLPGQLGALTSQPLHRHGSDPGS
row,SMILES,"hERG current change (%, negative = inhibition) at 10uM [%]"
1,O=C(COC(=O)/C=C/c1cccs1)NC(c1ccccc1)c1ccccc1,-2.53
2,CCc1c(C(C)S(=O)(=O)c2ccc(C)cc2)[nH]c(=O)n1-c1ccc(OC(F)(F)F)cc1 (stereo not drawn),12.8
3,CCc1nnc(NC(=O)CCC(=O)N2CCN(c3cc(C)ccc3C)CC2)s1,11.9
4,COc1cccc(-c2cc(C(=O)Nc3c(C)nn(Cc4ccccc4C)c3C)no2)c1,-11.8
5,C=CCNc1nc(Nc2cc(Cl)ccc2OC)nc(OC)n1,23.5
6,CCCc1cc(=O)oc2cc(OCC(=O)NCCc3c[nH]c4ccc(OC)cc34)ccc12,-21.7
7,Cc1cccc([C@@H]2[C@@H]3C(=O)N(Cc4ccccc4)C(=O)[C@@H]3[C@]3(Cc4ccccc4)C(=O)N(c4cccc(Cl)c4)C(=O)N23)c1,23.6
8,O=C(CCNS(=O)(=O)c1ccc2c(c1)CCC(=O)N2)Nc1ccc(F)c(F)c1,-18.9
9,O=C(OC(C(=O)NCc1ccc2c(c1)OCO2)c1ccccc1F)c1ccco1 (stereo not drawn),-31.1
10,CCOC(=O)C1CCN(C(=O)c2ccccc2NC(=O)c2ccc(Cl)cc2)CC1,-12.6
11,Cc1ccc(S(=O)(=O)CC(=O)Nc2nnc(C(C)C)s2)cc1,12.6
12,CCOC(=O)CCCNC(=O)CCCNC(=O)C(c1ccccc1)c1ccccc1,-8.05
13,Cc1ccc(C(C)(C)C)c(OCCCn2ccnc2)c1.O=C(O)C(=O)O,-16.6
14,Cn1nc(C(=O)NC2CCCCCC2)ccc1=O,1.75
15,COC(=O)CSc1ncnc2c1sc1nc(-c3ccco3)c3c(c12)CC(C)(C)OC3,3.01
16,Cc1c(NC(=O)Nc2cccc(C(F)(F)F)c2)c(=O)n(-c2ccccc2)n1C,-2.96
17,C=CCOc1ccc(Cl)cc1CNCCCN1CCOCC1.Cl,-18.2
18,COc1ccc([C@@H]2CC(=O)c3c(O)cc(O[C@@H]4OC(CO[C@@H]5OC(C)[C@H](O)[C@H](O)C5O)[C@@H](O)[C@@H](O)C4O)cc3O2)cc1O (stereo partly drawn),13.2
19,CC(C)n1nnnc1SCC(=O)N1N=C(c2cccs2)CC1c1cccs1 (stereo not drawn),-46.1
20,Cc1[nH]c2ccccc2c1/C=N/NS(=O)(=O)c1ccccc1,15.1
21,C/C(=N/NC(=O)c1ccccn1)c1ccncc1,15.3

row,SMILES,"hERG current change (%, negative = inhibition) at 10uM [%]"
1,COc1cc(OC)c(OC)cc1CN(C)CC1CCCN(CCc2ccccc2F)C1 (stereo not drawn),-2.33
2,Cc1cccc(N2CCN(Cc3nc(-c4ccc(F)cc4F)oc3C)CC2)n1,-41.3
3,CN(C)CC1CSCCC1(O)c1cccc(Cl)c1.Cl (stereo not drawn),7.05
4,CC(=O)CCc1ccc(OCCCCN2CCC(Cc3ccccc3)CC2)cc1.O=C(O)C(=O)O,-79.5
5,N#Cc1c(C(F)(F)F)cc(-c2cccs2)nc1N1CCCCC1,17.3
6,COc1ccc(NC(=O)c2cc([N+](=O)[O-])ccc2O)cc1,-57.6
7,CC(NC(N)=O)C(=O)Nc1ccc(Cl)c(S(=O)(=O)Nc2ccc(Br)cc2)c1 (stereo not drawn),23.2
8,CC1CCCC(C)N1CC(O)COCc1ccccc1.Cl (stereo not drawn),5.08
9,CCCN1C(=O)/C(=C/c2ccc(N3CCCC3)c(C)c2)NC1=S,-7.93
10,CC(=O)Nc1nc2n(n1)C(c1ccc(Cl)cc1)C=C(C)N2 (stereo not drawn),-15.7
11,Cc1ccc(S(=O)(=O)NC2CC2)cc1,11.7
12,COc1ccccc1-n1c(-c2ccccc2Cl)nc2ccccc2c1=O,-7.34
13,Cc1ccc(OCC(=O)NC2CCCc3ccccc32)c(C)c1 (stereo not drawn),-5.04
14,CC(=O)c1ccc2c(c1)c1ccccc1n2CC(C)C,-4.87
15,COc1ccc(C(=O)OCC(=O)NC(=O)NC2CCCC2)c(O)c1,25.3
16,Cc1cc(C)cc(NC(=S)N2CCN(S(=O)(=O)c3ccccc3)CC2)c1,0.86
17,Cc1cc(C)c2nc(N3C(=O)C(O)=C(C(=O)c4ccco4)C3c3ccc(O)cc3)sc2c1 (stereo not drawn),18.3
18,COc1ccccc1C(=O)NC(=S)NC12CC3CC(CC(C3)C1)C2,-5.02
19,COC(=O)c1cc(Br)c(=O)n(Cc2ccc3c(c2)OCO3)c1,-9.61
20,O=C(Cc1ccccc1)NCC1OCCc2ccccc21 (stereo not drawn),23.6
21,CCc1ccc(S(=O)(=O)NCCc2csc(-c3cccnc3)n2)s1,-32.1

row,SMILES,"hERG current change (%, negative = inhibition) at 10uM [%]"
1,CC(C)CCNC(=O)NC(=O)CSc1nnc(-c2ccccc2F)n1N,-29.8
2,CC(C)(C)NC(=O)C(c1ccc(OCC(N)=O)cc1)N(C(=O)c1cccnc1)C1CC1 (stereo not drawn),1.73
3,COC(=O)Nc1ccc(S(=O)(=O)N2CCCC(C(=O)N3CC(C)OC(C)C3)C2)cc1 (stereo not drawn),16.7
4,Cc1ccc(C)c(N=C2CCCN2Cc2ccccc2)c1C#N,-12.1
5,CCN(CC)S(=O)(=O)c1ccc(C(=O)N2CCN(CCN3C(=O)c4cccc5cccc(c45)C3=O)CC2)cc1,25.7
6,COc1ccc(OC)c(NC(=O)c2nnn(Cc3ccc(Br)cc3F)c2N)c1,12.7
7,C/C(CCc1ccccc1)=N\NC(=S)NCCc1ccccc1,15.6
8,COC(=O)CCP(=O)(O)Cc1ccccc1CP(=O)(O)CCC(=O)OC,-5.43
9,CCOC(=O)CSC1=C(C#N)C(c2ccccc2Cl)C(C(=O)OC)C(=O)N1 (stereo not drawn),1.4
10,COC(=O)C1CCCCN1C(=O)CCc1nnc(CCc2c[nH]c3ccccc23)o1 (stereo not drawn),13.7
11,COc1ccc2cc(C)c3nnc(SCC(=O)Nc4nc(-c5ccccc5)cs4)n3c2c1,-15.5
12,Cc1ccc(C)c(Cn2c(=O)n(CCCC(=O)NCc3ccco3)c(=O)c3ccccc32)c1,0.892
13,Cc1ccc2cc(CN(CC3CCCO3)C(=S)NCc3ccco3)c(=O)[nH]c2c1C (stereo not drawn),-40.8
14,COc1ccc(N2C(=O)C(CC(=O)Nc3ccccc3)N(Cc3ccccn3)C2=S)cc1 (stereo not drawn),-18.7
15,O=C(NCc1ccco1)C1CCCN(S(=O)(=O)c2cccc3nsnc23)C1 (stereo not drawn),0.547
16,O=C(CN1CCOCC1)Nc1ccccc1NC(=O)C1CCN(c2ncccn2)CC1,9.55
17,O=C(c1ccncc1)N1N=C(c2ccc(Cl)cc2)CC1c1ccccc1O (stereo not drawn),18.1
18,CC[C@@]12C(=O)N(c3cccc(Br)c3)C(=O)N1[C@H](c1ccc(OC)cc1)[C@@H]1C(=O)N(C(C)(C)C)C(=O)[C@@H]12,-2.53
19,COc1ccc(C(CC(=O)Nc2nccs2)n2cccc2)cc1 (stereo not drawn),10.2
20,Cc1ccc(S(=O)(=O)N2CCOCC2)cc1C(=O)Nc1ccc(S(=O)(=O)Nc2nccs2)cc1,-3.9
21,O=C(Nc1ccccc1)c1ccccc1OCc1cccc([N+](=O)[O-])c1,11.8

row,SMILES,"hERG current change (%, negative = inhibition) at 10uM [%]"
1,Cc1ccc(-c2nnc(COc3cccc(-n4cnnn4)c3)o2)cc1,-2.89
2,CCC(C)[C@H](NC(=O)N1CCn2c1nc1ccccc12)C(=O)NCc1ccccc1 (stereo partly drawn),6.25
3,CCCN1C(=O)/C(=C/c2nc3ccccc3c(=O)[nH]2)c2cc(C)ccc21,6.59
4,Cn1c(Nc2ccc(F)cc2)nc2ccccc21,-51.7
5,CS(=O)(=O)N1CCN(c2ccccc2NC(=O)CSc2nnc(-c3ccco3)o2)CC1,-21.7
6,Cc1nn(C)c(-c2n[nH]c(=S)n2Cc2ccco2)c1Cl,11.7
7,Nc1ccccc1C(=O)N1CCC(O)(c2ccc(Cl)cc2)CC1,2.69
8,Cc1ccc(-c2csc(Nc3ccccn3)n2)cc1,-23.7
9,CC(Sc1nnc(Cc2ccccc2)n1C)C(=O)NC1CC1 (stereo not drawn),9.9
10,COc1ccc(-c2nc(CN3CCC(C(=O)NC4CCN(Cc5ccccc5)CC4)CC3)c(C)o2)cc1OC,1.67
11,COc1ccccc1CCNC(=O)C(=O)NCC1OCCN1S(=O)(=O)c1ccc(OC)c(OC)c1 (stereo not drawn),-25.7
12,O=C1C2C3CCC(C3)C2C(=O)N1CNc1ccc(F)cc1 (stereo not drawn),-2.99
13,O=C(NCC(=O)N1CCCCCC1)c1ccc(Br)cc1,-7.84
14,CCCCS(=O)(=O)Nc1ccc2ncn(C)c(=O)c2c1,-1.78
15,CCCC(=O)NC(=S)Nc1ccc(NC(=O)c2cccs2)cc1,-6.62
16,COc1ccc(-n2c(Cc3cccn3C)nnc2SCC(=O)Nc2ccc3c(c2)OCCO3)cc1,-7.95
17,O=C(N/N=C/c1cccc(Oc2ccccc2)c1)c1ccccc1F,4.39
18,O=C1C=C(NCc2ccccc2)C2(CCCCC2)O1,0.0967
19,CC1(c2ccccc2)NC(=O)N(CC(=O)Nc2ccc3c(c2)OCO3)C1=O (stereo not drawn),-2.96
20,N#Cc1c(NCCN)nc(-c2ccccc2)c2c1CCCC2,-35.1
21,CSc1cccc(NC(=O)CN2C(=O)c3ccccc3S2(=O)=O)c1,-29.3
